B1: Ab1101: CT heterodimeric binding protein, FIG. 9C (antibody)
heavy 1: EVQLVESGGGLVQPGGSLRLSCAASGFTFSNYWMNWVRQAPGKGLEWVAQIRVKSENFATHYADSVKGRFTISRDDSKSTVYLQMNSLRAEDTAVYYCTLYDGFSWGQGTLVTVSSASTKGPSVFPLAPSSKSTSGGTAALGCLVKDYFPEPVTVSWNSGALTSGVHTFPAVLQSSGLYSLSSVVTVPSSSLGTQTYICNVNHKPSNTKVDKKV[human IgG1 Fc with changes left out]
light: DIQMTQSPSSLSASVGDRVTITCSASSSVSSGNFHWYQQKPGKAPKLLIYRTSNLASGVPSRFSGSGSGTDYTLTISSLQPEDFATYYCQQWSGYPYTFGQGTKVEIKRTVAAPSVFIFPPSDEQLKSGTASVVCLLNNFYPREAKVQWKVDNALQSGNSQESVTEQDSKDSTYSLSSTLTLSKADYEKHKVYACEVTHQGLSSPVTKSFNRGEC
heavy 2: QVQLVQSGAEVKKPGASVKVSCKASGYTFTSYWMHWVRQHPGQGLEWMGMIAPNSGGTNYAQKFQGRVTMTRDTSTSTVYMELSSLRSEDTAVYYCAMGDYVSRDYWGQGTLVTVSSGGGGSGGGGSGGGGSEIVLTQSPGTLSLSPGERATLSCRASSSVSSSYLHWYQQKPGQAPRLLIYSTSSRATGIPDRFSGSGSGTDFTLTISRLEPEDFAVYYCQQYSGYQFTFGQGTKLEIKGGGGS[human IgG1 Fc with changes left out]
modifications: REGION 1..445: note = Ab1101 Knob HC; REGION 1..215: note = Ab1101 Knob LC; REGION 1..471: note = Ab1101 Hole HC
B2: Ab1125 (protein)
scFv-Fc: QVQLVQSGAEVKKPGASVKVSCKASGYTFTSYWMHWVRQHPGQGLEWMGMIHPNSGGTNYAQKFQGRVTMTRDTSTSTVYMELSSLRSEDTAVYYCAMGDYVSRDYWGQGTLVTVSSGGGGSGGGGSGGGGSEIVLTQSPGTLSLSPGERATLSCRASSSVSSSYLHWYQQKPGQAPRLLIYSTSSRATGIPDRFSGSGSGTDFTLTISRLEPEDFAVYYCQQFSGYQFTFGQGTKLEIKGGGGS[human IgG1 Fc with changes left out]
light: B1 light
heavy: EVQLVESGGGLVQPGGSLRLSCAASGFTFSNYWMNWVRQAPGKGLEWVAQIRVKSENFATHYADSVKGRFTISRDDSKSTVYLQMNSLRAEDTAVYYCTLYDGFSWGQGTLVTVSSASTKGPSVFPLAPSSKSTSGGTAALGCLVKDYFPEPVTVSWNSGALTSGVHTFPAVLQSSGLYSLSSVVTVPSSSLGTQTYICNVNHKPSNTKVDKKV[human IgG1 Fc with changes left out]
B3: Ab1117: LS2A indinavir binding domain, FIGS. 5A-5E (protein)
scFv-Fc: QVQLVQSGAEVKKPGASVKVSCKASGYTFTSYWMHWVRQHPGQGLEWMGMIHPNSGGTNYAQKFQGRVTMTRDTSTSTVYMELSSLRSEDTAVYYCAMGDYVSRDAWGQGTLVTVSSGGGGSGGGGSGGGGSEIVLTQSPGTLSLSPGERATLSCRASSSVSSSYLHWYQQKPGQAPRLLIYSTSSRATGIPDRFSGSGSGTDFTLTISRLEPEDFAVYYCQQYSGYQFTFGQGTKLEIKGGGGS[human IgG1 Fc with changes left out]
light: B1 light
heavy: EVQLVESGGGLVQPGGSLRLSCAASGFTFSNYWMNWVRQAPGKGLEWVAQIRVKSENFATHYADSVKGRFTISRDDSKSTVYLQMNSLRAEDTAVYYCTLYDGFSWGQGTLVTVSSASTKGPSVFPLAPSSKSTSGGTAALGCLVKDYFPEPVTVSWNSGALTSGVHTFPAVLQSSGLYSLSSVVTVPSSSLGTQTYICNVNHKPSNTKVDKKV[human IgG1 Fc with changes left out]
B4: Ab1095: LS2A indinavir binding domain, FIGS. 5A-5E (protein)
scFv-Fc: QVQLVQSGAEVKKPGASVKVSCKASGYTFTSYAMHWVRQHPGQGLEWMGMIHPNSGGTNYAQKFQGRVTMTRDTSTSTVYMELSSLRSEDTAVYYCAMGDYVSRDYWGQGTLVTVSSGGGGSGGGGSGGGGSEIVLTQSPGTLSLSPGERATLSCRASSSVSSSYLHWYQQKPGQAPRLLIYSTSSRATGIPDRFSGSGSGTDFTLTISRLEPEDFAVYYCQQYSGYQFTFGQGTKLEIKGGGGS[human IgG1 Fc with changes left out]
light: B1 light
heavy: EVQLVESGGGLVQPGGSLRLSCAASGFTFSNYWMNWVRQAPGKGLEWVAQIRVKSENFATHYADSVKGRFTISRDDSKSTVYLQMNSLRAEDTAVYYCTLYDGFSWGQGTLVTVSSASTKGPSVFPLAPSSKSTSGGTAALGCLVKDYFPEPVTVSWNSGALTSGVHTFPAVLQSSGLYSLSSVVTVPSSSLGTQTYICNVNHKPSNTKVDKKV[human IgG1 Fc with changes left out]
B5: Ab1104: LS2A indinavir binding domain, FIGS. 5A-5E (protein)
scFv-Fc: QVQLVQSGAEVKKPGASVKVSCKASGYTFTSYWMHWVRQHPGQGLEWMGMIHPSSGGTNYAQKFQGRVTMTRDTSTSTVYMELSSLRSEDTAVYYCAMGDYVSRDYWGQGTLVTVSSGGGGSGGGGSGGGGSEIVLTQSPGTLSLSPGERATLSCRASSSVSSSYLHWYQQKPGQAPRLLIYSTSSRATGIPDRFSGSGSGTDFTLTISRLEPEDFAVYYCQQYSGYQFTFGQGTKLEIKGGGGS[human IgG1 Fc with changes left out]
light: B1 light
heavy: EVQLVESGGGLVQPGGSLRLSCAASGFTFSNYWMNWVRQAPGKGLEWVAQIRVKSENFATHYADSVKGRFTISRDDSKSTVYLQMNSLRAEDTAVYYCTLYDGFSWGQGTLVTVSSASTKGPSVFPLAPSSKSTSGGTAALGCLVKDYFPEPVTVSWNSGALTSGVHTFPAVLQSSGLYSLSSVVTVPSSSLGTQTYICNVNHKPSNTKVDKKV[human IgG1 Fc with changes left out]
B6: Ab1111: LS2A indinavir binding domain, FIGS. 5A-5E (protein)
scFv-Fc: QVQLVQSGAEVKKPGASVKVSCKASGYTFTSYWMHWVRQHPGQGLEWMGMIHPNSGGTNYAQKFQGRVTMTRDTSTSTVYMELSSLRSEDTAVYYCAMADYVSRDYWGQGTLVTVSSGGGGSGGGGSGGGGSEIVLTQSPGTLSLSPGERATLSCRASSSVSSSYLHWYQQKPGQAPRLLIYSTSSRATGIPDRFSGSGSGTDFTLTISRLEPEDFAVYYCQQYSGYQFTFGQGTKLEIKGGGGS[human IgG1 Fc with changes left out]
light: B1 light
heavy: EVQLVESGGGLVQPGGSLRLSCAASGFTFSNYWMNWVRQAPGKGLEWVAQIRVKSENFATHYADSVKGRFTISRDDSKSTVYLQMNSLRAEDTAVYYCTLYDGFSWGQGTLVTVSSASTKGPSVFPLAPSSKSTSGGTAALGCLVKDYFPEPVTVSWNSGALTSGVHTFPAVLQSSGLYSLSSVVTVPSSSLGTQTYICNVNHKPSNTKVDKKV[human IgG1 Fc with changes left out]
B7: Ab1121: LS2A indinavir binding domain, FIGS. 5A-5E (protein)
scFv-Fc: QVQLVQSGAEVKKPGASVKVSCIASGYTFTSYWMHWVRQHPGQGLEWMGMIHPNSGGTNYAQKFQGRVTMTRDTSTSTVYMELSSLRSEDTAVYYCAMGDYVSRDYWGQGTLVTVSSGGGGSGGGGSGGGGSEIVLTQSPGTLSLSPGERATLSCRASSSVSSSYLHWYQQKPGQAPRLLIYSTSSRATGIPDRFSGSGSGTDFTLTISRLEPEDFAVYYCQQYSGYQFTFGQGTKLEIKGGGGS[human IgG1 Fc with changes left out]
light: B1 light
heavy: EVQLVESGGGLVQPGGSLRLSCAASGFTFSNYWMNWVRQAPGKGLEWVAQIRVKSENFATHYADSVKGRFTISRDDSKSTVYLQMNSLRAEDTAVYYCTLYDGFSWGQGTLVTVSSASTKGPSVFPLAPSSKSTSGGTAALGCLVKDYFPEPVTVSWNSGALTSGVHTFPAVLQSSGLYSLSSVVTVPSSSLGTQTYICNVNHKPSNTKVDKKV[human IgG1 Fc with changes left out]
B8: Ab1102: LS2A indinavir binding domain, FIGS. 5A-5E (protein)
scFv-Fc: QVQLVQSGAEVKKPGASVKVSCKASGYTFTSYWMHWVRQHPGQGLEWMGMIHPNSGGTNYAQKFQGRVTMTRDTSTSTVYMELSSLRSEDTAVYYCAMGDYVSADYWGQGTLVTVSSGGGGSGGGGSGGGGSEIVLTQSPGTLSLSPGERATLSCRASSSVSSSYLHWYQQKPGQAPRLLIYSTSSRATGIPDRFSGSGSGTDFTLTISRLEPEDFAVYYCQQYSGYQFTFGQGTKLEIKGGGGS[human IgG1 Fc with changes left out]
light: B1 light
heavy: EVQLVESGGGLVQPGGSLRLSCAASGFTFSNYWMNWVRQAPGKGLEWVAQIRVKSENFATHYADSVKGRFTISRDDSKSTVYLQMNSLRAEDTAVYYCTLYDGFSWGQGTLVTVSSASTKGPSVFPLAPSSKSTSGGTAALGCLVKDYFPEPVTVSWNSGALTSGVHTFPAVLQSSGLYSLSSVVTVPSSSLGTQTYICNVNHKPSNTKVDKKV[human IgG1 Fc with changes left out]
B9: Ab1114: LS2A indinavir binding domain, FIGS. 5A-5E (protein)
scFv-Fc: QVQLVQSGAEVKKPGASVKVSCKASGYTFTSYWMHWVRQHPGQGLEWMGMIHPNSGGTNYAQKFQGRVTMTRDTSTSTVYMELSSLRSEDTAVYYCAMGDYASRDYWGQGTLVTVSSGGGGSGGGGSGGGGSEIVLTQSPGTLSLSPGERATLSCRASSSVSSSYLHWYQQKPGQAPRLLIYSTSSRATGIPDRFSGSGSGTDFTLTISRLEPEDFAVYYCQQYSGYQFTFGQGTKLEIKGGGGS[human IgG1 Fc with changes left out]
light: B1 light
heavy: EVQLVESGGGLVQPGGSLRLSCAASGFTFSNYWMNWVRQAPGKGLEWVAQIRVKSENFATHYADSVKGRFTISRDDSKSTVYLQMNSLRAEDTAVYYCTLYDGFSWGQGTLVTVSSASTKGPSVFPLAPSSKSTSGGTAALGCLVKDYFPEPVTVSWNSGALTSGVHTFPAVLQSSGLYSLSSVVTVPSSSLGTQTYICNVNHKPSNTKVDKKV[human IgG1 Fc with changes left out]

Assay: Differential scanning fluorimetry (DSF) melting temperature
Type: physicochemical
Settings: LS2A R4 variants (Table 21)
Method: DSF was performed on a LC480 Lightcycler Instrument II (Roche). Purified recombinant protein was diluted to 5 μM in DSF buffer (PBS, pH 7.4, Sypro Orange 5×) with small molecule (10 μM VTX) or vehicle (0.05% DMSO) and then heated with a temperature gradient (0.01° C./s) from 25 to 95° C. Data were continuously acquired at ˜465 nm (excitation) and ˜580 nm (emission). Data was analyzed to generate first derivative curves in which the curve maximum was reported as the melting temperature of the protein.

Molecule | TM (° C.) [°C]
B1 | 54.9
B2 | 58
B3 | 57.5
B4 | 55.9
B5 | 59.2
B6 | 56.9
B7 | 54.7
B8 | 65.4
B9 | 59.9
